From the supplement of paper PMC7826260
Some of the results follow. The data describe in vitro nicking of single-stranded DNA by Rep domains for 1 h at 37 °C with 3 µM enzyme; only the middle of the 90-letter strands is printed. Uncut reads are compared with the no-enzyme pool on a log2 scale; the lower, the more was cut; hits are not called. Shares of all reads are compared; where an enzyme cuts many sequences, the uncut ones exceed 0.

Tests used:
Experiment in all cases: uncleaved DNA left, log2 of reads against the no-enzyme library (log2 ratio); higher = less cleavage (more negative = more Rep cleavage of the k-mer); sequences stand for … in CTCGTCCG…ACCGGAGA
[1] = system: T1, Rep nickase domain of Muscovy duck circovirus
T1 sequence (Rep 1-111, printed without the tag): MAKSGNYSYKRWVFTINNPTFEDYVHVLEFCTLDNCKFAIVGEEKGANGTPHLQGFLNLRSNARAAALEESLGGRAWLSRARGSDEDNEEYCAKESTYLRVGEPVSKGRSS
Procedure: (§1)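 A pool of 90-nt single-stranded DNAs with seven random bases just before the constant AC of the nick site (name = the seven bases) was cut by 3 µM recombinant His6-SUMO-tagged Rep nickase domain (300 nM DNA, 50 mM HEPES pH 8.0, 50 mM NaCl, 1 mM MnCl2, 1 h, 37 °C, three replicates). Uncut DNA was amplified and sequenced.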

[2] = system: T2, Rep nickase domain of banana bunchy top virus
T2 sequence (Rep 1-94, printed without the tag): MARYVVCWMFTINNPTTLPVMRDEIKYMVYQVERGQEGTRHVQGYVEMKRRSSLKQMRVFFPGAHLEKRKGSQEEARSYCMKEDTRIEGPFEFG
Procedure: as §1

[3] = system: T3, Rep nickase domain of cabbage leaf curl virus
T3 sequence (Rep 1-116, printed without the tag): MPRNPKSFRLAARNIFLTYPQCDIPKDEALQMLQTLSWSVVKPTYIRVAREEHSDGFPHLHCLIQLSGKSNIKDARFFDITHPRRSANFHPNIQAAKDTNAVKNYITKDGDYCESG
Procedure: as §1

[4] = system: T4, Rep nickase domain of chickpea chlorotic dwarf virus
T4 sequence (Rep 1-124, printed without the tag): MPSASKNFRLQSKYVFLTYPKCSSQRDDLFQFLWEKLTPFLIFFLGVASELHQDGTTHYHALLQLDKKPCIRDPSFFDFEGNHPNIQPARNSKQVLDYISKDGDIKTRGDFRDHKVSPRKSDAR
Procedure: as §1

[5] = system: T5, Rep nickase domain of faba bean necrotic yellows virus
T5 sequence (Rep 1-98, printed without the tag): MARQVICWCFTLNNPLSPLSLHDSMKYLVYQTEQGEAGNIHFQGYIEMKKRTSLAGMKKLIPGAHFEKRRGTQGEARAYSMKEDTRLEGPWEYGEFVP
Procedure: as §1

[6] = system: T6, Rep nickase domain of maize striate mosaic virus
T6 sequence (Rep 1-117, printed without the tag): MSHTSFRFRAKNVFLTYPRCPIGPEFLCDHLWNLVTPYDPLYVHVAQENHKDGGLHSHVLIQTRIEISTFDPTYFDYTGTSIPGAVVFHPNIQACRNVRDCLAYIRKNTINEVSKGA
Procedure: as §1

[7] = system: T7, Rep nickase domain of porcine circovirus 2
T7 sequence (Rep 2-116, printed without the tag): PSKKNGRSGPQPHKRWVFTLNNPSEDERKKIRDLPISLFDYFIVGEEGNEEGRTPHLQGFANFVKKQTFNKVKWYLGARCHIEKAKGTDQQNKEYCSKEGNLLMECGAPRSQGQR
Procedure: as §1

[8] = system: T8, Rep nickase domain of tomato golden mosaic virus
T8 sequence (Rep 1-124, printed without the tag): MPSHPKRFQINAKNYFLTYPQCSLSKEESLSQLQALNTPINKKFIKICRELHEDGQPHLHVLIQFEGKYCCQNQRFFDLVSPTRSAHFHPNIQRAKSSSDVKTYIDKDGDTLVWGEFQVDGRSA
Procedure: as §1

[9] = system: T9, Rep nickase domain of tomato yellow leaf curl virus
T9 sequence (Rep 1-136, printed without the tag): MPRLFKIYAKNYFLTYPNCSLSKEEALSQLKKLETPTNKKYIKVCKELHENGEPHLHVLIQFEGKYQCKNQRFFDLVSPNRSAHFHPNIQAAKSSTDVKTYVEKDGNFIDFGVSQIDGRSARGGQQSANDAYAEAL
Procedure: as §1

[10] = system: T10, Rep nickase domain of wheat dwarf virus
T10 sequence (Rep 1-137, printed without the tag): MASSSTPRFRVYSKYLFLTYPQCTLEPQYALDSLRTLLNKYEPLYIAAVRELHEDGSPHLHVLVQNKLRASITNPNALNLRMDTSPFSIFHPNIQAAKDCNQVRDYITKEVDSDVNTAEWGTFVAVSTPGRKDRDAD
Procedure: as §1

Sequence	uncleaved DNA left (log2) [1]	uncleaved DNA left (log2) [2]	uncleaved DNA left (log2) [3]	uncleaved DNA left (log2) [4]	uncleaved DNA left (log2) [5]	uncleaved DNA left (log2) [6]	uncleaved DNA left (log2) [7]	uncleaved DNA left (log2) [8]	uncleaved DNA left (log2) [9]	uncleaved DNA left (log2) [10]
CCTCCCG	-0.0536	-0.092	-0.651	-0.0678	-0.0317	-0.848	-0.0297	-0.0158	-0.13	-0.111
AGGGTAG	0.223	0.0661	-0.185	0.0808	0.11	-0.629	0.322	0.137	0.189	0.06
CCGCCTT	-0.0595	-0.145	0.0116	-1.77	-0.125	-0.267	-0.226	-0.108	-0.144	-0.0988
AAGTACT	-4.04	-3.48	-0.886	-2.82	-3.72	0.226	-4.32	-0.324	-0.113	-0.183
ATGAGGG	0.0694	-0.0809	-0.276	-0.0364	0.0607	-0.823	0.227	0.0558	0.0127	-0.00178
GTTATTG	0.0333	0.00643	0.0616	0.299	-0.0498	0.16	0.0523	0.04	0.06	-0.0179
TCATCTT	-3.28	-0.316	-2.43	-2.74	0.0654	-0.739	-3.43	-0.195	-0.171	-0.556
CGCACTA	-0.0296	-0.0774	-0.00351	0.028	-0.0537	0.627	-0.135	-0.133	-0.189	-0.00632
GCGAACG	0.0605	0.0221	-0.187	-0.131	0.0267	-0.437	0.0604	0.0334	0.00482	-0.152
ACGATTG	-0.00472	0.0308	-0.0512	0.455	-0.0158	0.589	-0.00166	0.0254	0.0181	-0.0396
GGATCAC	-0.00137	0.0739	0.611	1.48	-0.0616	1.96	0.179	-0.108	0.0808	0.109
GTATGTA	0.0201	0.00209	0.328	0.698	0.0715	1.42	-0.012	0.00687	0.0869	0.126
CATGATT	-0.155	-0.883	-0.877	-2.9	-0.077	-0.703	-2.1	-0.268	-0.132	-0.371
GGCCCAC	0.137	0.0944	0.503	1.18	0.0492	1.78	0.0906	0.123	0.1	0.242
GTGATGC	-0.0333	0.166	0.131	0.779	-0.0574	1.34	-0.00133	0.125	0.068	0.00934
ATAAAAA	-0.11	-0.0611	-0.0847	-0.219	-0.0497	-0.724	0.0862	-0.0245	-0.051	0.0374
CTATGGA	0.08	0.0287	-0.0437	-0.0174	0.0388	-0.557	0.122	0.237	-0.0391	0.0596
AATCAGG	0.0894	0.0507	0.433	1.12	0.175	0.8	0.267	0.158	-0.0912	0.243
TTTTATG	0.11	0.02	-0.362	-0.578	0.0374	-1.02	0.211	0.0303	0.0625	0.0238
CGAACCT	0.0804	-0.00143	-0.0994	-1.23	-0.0233	-0.174	-0.434	-0.209	0.0263	0.15

Sequence	uncleaved DNA left (log2) [1]	uncleaved DNA left (log2) [2]	uncleaved DNA left (log2) [3]	uncleaved DNA left (log2) [4]	uncleaved DNA left (log2) [5]	uncleaved DNA left (log2) [6]	uncleaved DNA left (log2) [7]	uncleaved DNA left (log2) [8]	uncleaved DNA left (log2) [9]	uncleaved DNA left (log2) [10]
GACCAGG	-0.17	-0.0193	0.0693	0.827	-0.0255	0.248	0.00653	-0.0597	-0.0505	0.0637
TCGGGAT	0.0474	0.106	0.357	1.64	0.0157	1.98	0.198	0.172	-0.02	0.032
CAAAGCT	-0.089	-0.065	-1.4	-2.5	-0.105	-0.835	-0.135	-0.245	-0.077	-0.221
ACGGACG	-0.0356	0.0358	-0.758	-0.582	0.0827	-0.973	0.268	0.0164	0.0672	-0.0875
GTTTATA	0.177	0.0881	0.351	1.01	0.0491	1.87	0.161	0.176	0.155	0.239
TCGAGAT	0.0497	-0.099	0.303	0.956	-0.136	1.35	-0.0867	-0.126	-0.2	-0.0696
AAGTTCA	-0.0255	-0.147	-0.134	-2.14	-0.206	-0.444	-3.21	-0.0613	0.0152	0.0396
AGGTAAG	0.04	-0.068	-0.57	-0.535	0.104	-0.932	0.121	0.015	0.0253	-0.129
GGCCACG	0.0517	0.145	-0.0332	-0.0617	0.0243	-0.192	0.199	0.074	0.0851	0.0692
TCTGTGT	0.0793	-0.144	-0.259	-0.749	0.0839	-1.07	0.0631	-0.0427	-0.0842	-0.201
CAGATAG	0.0309	-0.0963	-0.783	-0.429	-0.0632	-1.08	0.0024	-0.104	-0.106	-0.131
CCCACGG	-0.0783	-0.102	0.421	1.33	0.0511	1.77	-0.0552	0.0854	-0.181	-0.0257
ACGGACC	-0.0429	0.0395	0.0607	0.662	-0.0566	0.991	0.165	0.202	0.00336	0.0466
AACATAC	0.0722	0.00947	-0.103	-0.861	0.0576	-1.07	0.145	0.0179	-0.00818	0.00125
CATCTCC	-0.0177	-0.0318	-0.262	-0.0393	-0.0952	1.4	0.0279	-0.112	-0.0127	-0.0214
CTCACTT	-0.131	-0.244	-0.112	-2.39	-0.274	-0.666	-0.521	-0.233	-0.158	-0.0798
CGCAGGT	-0.022	-0.0515	0.265	0.922	-0.0131	1.11	0.0763	0.0756	-0.00583	0.00881
ATCTGAG	0.11	0.00937	-0.61	-0.104	0.184	-0.91	0.228	0.0774	0.0571	0.0627
CGAATCC	0.0296	0.0803	0.0832	0.121	-0.0213	-0.303	0.0174	0.0324	0.0731	0.0617
GACTCGA	0.0872	-0.0588	-0.0431	0.034	-0.106	-0.306	-0.0188	0.0344	0.00382	-0.0699

Sequence	uncleaved DNA left (log2) [1]	uncleaved DNA left (log2) [2]	uncleaved DNA left (log2) [3]	uncleaved DNA left (log2) [4]	uncleaved DNA left (log2) [5]	uncleaved DNA left (log2) [6]	uncleaved DNA left (log2) [7]	uncleaved DNA left (log2) [8]	uncleaved DNA left (log2) [9]	uncleaved DNA left (log2) [10]
AGACGGT	-0.0756	-0.0745	0.256	0.511	-0.00749	1.35	-0.0166	0.00499	-0.142	0.0303
TGTACCT	0.0224	0.0308	0.148	-1.06	0.0317	0.62	-0.792	-0.0918	0.132	0.0505
ACAGAAC	-0.0039	0.0294	-0.0901	-0.315	0.0716	-0.679	0.128	0.0736	-0.0762	-0.0086
TAGTTAA	0.0472	0.0291	0.0644	-0.666	0.0227	-0.156	-2.66	0.0876	0.000173	0.0514
TAAGTTC	-0.0243	-0.0758	-0.0883	-2.65	-0.037	-0.617	-0.165	-0.118	-0.00583	-1.05
GCCGGCC	0.134	0.0955	0.234	0.651	-0.0496	0.262	0.214	0.114	0.0284	0.0578
ATACTGA	0.0661	0.0466	0.0293	0.281	0.0579	0.477	0.121	0.0593	-0.0893	0.0839
ATCAGGT	0.0429	-0.0566	0.245	1.2	0.131	1.3	0.164	0.104	-0.13	0.0458
TTAAACA	0.0951	0.198	0.195	-1.75	0.0551	-0.165	-0.092	0.0851	0.128	0.0687
TCCTCTC	-0.0938	-0.148	0.133	-0.243	-0.0633	-0.429	-0.119	-0.0983	-0.225	-0.134
TTTCCCC	-1.03	-0.178	0.166	-0.23	-0.0972	-0.0712	-2.37	-0.201	-0.0875	-0.019
CCATCGG	-0.0889	0.034	0.276	1.04	-0.164	1.04	-0.0258	0.0623	-0.224	-0.112
TCGAGTT	0.145	0.0664	-0.0234	-1.21	-0.00729	0.165	-0.662	0.0867	0.00741	-0.0423
AATGTAC	0.0431	0.0573	-0.051	-0.425	0.0997	-0.347	0.0897	0.0388	0.0203	0.0945
CCACACA	-0.0181	0.0145	-0.12	-1.8	-0.0302	-0.599	-0.0517	-0.0604	0.0432	-0.0469
ACTATGT	-0.00469	0.0955	-0.141	-0.472	0.123	-0.727	-1.89	0.122	0.0338	-0.0119
GTGAACA	0.136	0.195	0.415	1.11	0.0443	1.93	0.107	0.0918	0.126	0.213
TGTCCCG	-0.131	-0.0361	-0.741	-0.379	-0.0102	-0.857	-0.475	-0.0698	-0.0054	-0.0403
CGAAGGA	0.0194	0.0113	0.256	0.806	0.0339	0.66	0.117	-0.00505	-0.0472	0.132
GCCCCTA	0.0652	0.0914	0.0364	-0.133	-0.0593	0.321	0.0162	-0.0277	-0.0152	-0.045
